# Assay results reported in the supplement of paper PMC3334620.
# In all, about 33,000 sequences were measured (“E-score (-0.5 to 0.5)”: median about -0.032, highest 2% from about 0.36 on). The list shows a part of the results.
# Target: T1, Sko1 (UniProt Q02100)
# T1 sequence: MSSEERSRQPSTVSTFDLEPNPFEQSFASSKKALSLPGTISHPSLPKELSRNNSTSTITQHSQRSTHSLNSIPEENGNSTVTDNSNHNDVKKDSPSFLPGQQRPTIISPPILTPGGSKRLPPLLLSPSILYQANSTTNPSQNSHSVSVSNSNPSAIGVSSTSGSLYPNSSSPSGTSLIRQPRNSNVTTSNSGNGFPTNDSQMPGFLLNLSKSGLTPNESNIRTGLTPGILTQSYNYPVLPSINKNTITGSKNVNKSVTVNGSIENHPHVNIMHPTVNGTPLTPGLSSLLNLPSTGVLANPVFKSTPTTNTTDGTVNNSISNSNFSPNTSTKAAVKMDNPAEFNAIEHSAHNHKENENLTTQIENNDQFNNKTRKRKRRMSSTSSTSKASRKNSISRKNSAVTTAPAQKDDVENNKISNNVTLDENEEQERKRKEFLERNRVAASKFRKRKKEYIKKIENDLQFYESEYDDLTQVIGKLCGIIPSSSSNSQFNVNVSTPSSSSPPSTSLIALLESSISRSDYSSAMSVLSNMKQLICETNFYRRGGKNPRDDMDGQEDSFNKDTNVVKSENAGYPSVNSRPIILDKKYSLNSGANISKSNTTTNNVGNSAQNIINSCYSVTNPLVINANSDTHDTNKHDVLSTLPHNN
# Test: PBM E-score (8-mer binding enrichment) (E-score (-0.5 to 0.5)); higher = stronger / more preferred TF binding; most listed sequences are background and not binding sites
# Details: protein concentration: 200 nM; construct: GST-full length
# Method in brief: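 Using PURExpress in vitro transcription/translation, GST-tagged yeast transcription factors were made in full-length or DNA-binding-domain form. These were applied at about 100-200 nM to double-stranded universal all-10-mer Agilent arrays, and bound protein was detected with fluorescent anti-GST. Scans were normalised with masliner before the Universal PBM Analysis Suite assigned E-scores to ungapped eight-base words pooled with their reverse complements.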
row,Sequence,PBM E-score
1,GTACACAA,0.124
2,GTACAACA,0.193
3,CGCGTTCA,0.146
4,ATACATGC,0.0846
5,CATGCCGG,-0.00789
6,CTATGACA,0.236
7,GCAGGAAC,-0.0882
8,CGTCTTGA,0.183
9,ACGATGGC,0.13
10,AACAGAAA,0.0791
11,AGCATTAG,-0.0242
12,ATCGTTGA,0.12
13,ATCGTCAA,0.287
14,CACCTTAG,0.00263
15,ACCCACGT,0.374
16,CTCTCTGC,-0.291
17,AAACGGTA,-0.0429
18,ACATTTAT,0.173
19,GCTCTTTA,-0.0898
20,GCAACCCC,-0.249
21,ACTGAGAA,-0.195
22,ACGGACTC,-0.236

row,Sequence,PBM E-score
1,ATAAATGG,0.00336
2,CGGGATTA,-0.00217
3,ATGACGAG,0.462
4,CGTATCCA,0.158
5,GAATAGTA,0.192
6,GGATAAGA,-0.102
7,AACACGCC,-0.0487
8,AGTAAATC,0.0872
9,GAAATGTC,-0.00114
10,AAGATTGA,0.0724
11,CGGACAAG,-0.189
12,CACTCCCG,-0.198
13,CTAAGAAG,0.12
14,GAGCGACC,-0.222
15,CAAACCCA,0.0369
16,CCTCTGCC,-0.346
17,ACCAATAG,-0.294
18,AAGCACCA,-0.155
19,AATGCCCG,-0.342
20,AGTGCTTG,-0.0619
21,CGAATGTC,0.0379
22,ATTTGCCG,-0.144

row,Sequence,PBM E-score
1,CTCTCCTA,0.0822
2,AACATACG,0.387
3,GAAGGACC,-0.245
4,GAATAGCC,-0.17
5,CGAGTTTC,-0.0568
6,ACGGCGTG,0.0446
7,AGTGGTTG,0.00724
8,AATAGGCA,0.0422
9,GAGGCTAC,-0.196
10,AACAGCGA,-0.126
11,ATGAACAA,0.187
12,AGCTGTAT,-0.184
13,GGACGCGA,-0.0252
14,TAGCAACA,0.141
15,CCGCTAGC,-0.241
16,ACCTTACC,-0.0227
17,ACGAAGGA,0.0704
18,ACTGTAGG,-0.0232
19,TCATTAAA,0.304
20,CTTACGTC,0.459
21,AAAGGTCG,-0.191
22,TCTTAAAA,0.108

row,Sequence,PBM E-score
1,CTTAGTAA,0.0423
2,GTTATGGA,0.198
3,TCCATGCA,-0.168
4,AGCACGCT,-0.101
5,ACTCTACA,-0.00963
6,CACTCCGA,-0.124
7,CGAGCCTC,-0.324
8,CCGCAGGA,-0.348
9,CGCCGATA,-0.12
10,ACGCCTCT,-0.0788
11,ACGAAGGC,-0.163
12,ACCGAAGC,-0.195
13,ATCGCGCG,0.266
14,AGGCGACC,-0.133
15,GATCATCA,0.00452
16,ATCGATCA,0.116
17,TCACCTGA,-0.125
18,ACAGAAGT,0.0286
19,GCCAGCCC,-0.3
20,CCATGGAC,-0.0576
21,CCGTAAAC,0.104
22,ATGTGGGA,0.00803

row,Sequence,PBM E-score
1,GAACATTC,0.0331
2,AATTTGCG,0.164
3,GCTGTACA,-0.149
4,CGAGGGTC,-0.277
5,CTTGACAA,0.145
6,GAGGCGAA,-0.0469
7,GGCCTGAC,-0.172
8,ACATTAGG,-0.00072
9,GACAAGCA,-0.178
10,GAGCGAGA,-0.0193
11,ATTCTTTC,0.0405
12,AAGCTCGT,0.136
13,CACTGGAA,-0.0512
14,ACTGGAAA,0.046
15,AGTCGGCG,-0.0458
16,GAAGTTTA,0.133
17,ACTCGTGC,-0.0767
18,GAGGGATC,-0.259
19,GACGACTC,-0.0544
20,ACCTTAGT,-0.00136
21,CCCAACGA,0.0655
